Screen size: about 310,000 compounds; about 18,000 (5.8%) were called active. Inconclusive results, whose numbers are uncertain, are shown with a selection of clear calls. Calls follow the shape of the dose curve; as a rule, active = well fitted inhibition curve with a large enough effect; inconclusive = small, poorly fitted or top-dose-only effect, or another doubt; inactive = no such curve, though single readings can be large or run the other way. No potency is given beside an inconclusive call; the fits are too rough.
Assay: Primary qHTS for delayed death inhibitors of the malarial parasite plastid, 48 hour incubation
Settings: P. falciparum luciferase growth in erythrocytes; series mostly up to 28.7 µM; activity change, negative = inhibition: at the top concentration
How it was run: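 Cell-based growth assay: transgenic P. falciparum expressing firefly luciferase, cultured in red cells within RPMI 1640 containing 0.5% w/v Albumax, 24 mM bicarbonate and gentamycin. A drop in luciferase activity indicates inhibition.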
% is scaled to controls: 0 for no effect and ±100 for the full control effect; potency is read from the fitted curve at half-maximal effect; tags tell the direction and shape of the fitted curve.

Structure (SMILES) | activity change, negative = inhibition | Potency
CCOC(=O)CNC(=O)N1CCCC(N(C)CCc2ccccc2)C1 (configuration not stated) | inactive: -1.17% | 
Cc1oc(-c2ccccc2Cl)nc1CS(=O)(=O)CC(=O)N1CCOCC1 | inactive: 11.1% | 
COc1cc([C@@H]2CC=C(C(=O)O)[C@H](c3ccc(Cl)cc3)N2S(=O)(=O)c2ccc(C)cc2)cc(OC)c1OC |  | active: 9.28 µM
O=C(CCS(=O)(=O)c1ccccc1)Nc1nc2ccc(F)cc2s1 |  | inconclusive [inhibitor, single point]
C=CCn1c(SCc2csc(C)n2)nc2sc3c(c2c1=O)CCCCC3 |  | inconclusive [inhibitor, partial curve, poor fit]
Nc1c(C(O)(C(F)(F)F)C(F)(F)F)ccc2ccccc12 |  | inconclusive [inhibitor, partial curve, poor fit]
c1ccc(-c2nnc(C(c3ccccc3)c3ccccc3)o2)cc1 |  | inconclusive [inhibitor, single point]
CCCN1C2=NCCN2c2ccccc21 | inactive: -9.13% | 
O=C1CSC(c2ccccc2F)N1 (configuration not stated) |  | inconclusive [inhibitor, single point]
Cc1cccc(NC(=O)c2nc[nH]c2C(=O)N[C@@H](CCCCNC(=O)OC(C)(C)C)C(=O)OC(C)(C)C)c1 |  | active: 4.65 µM
CC(C)CCn1c(SCC#N)nc2c(sc3ccccc32)c1=O |  | inconclusive [inhibitor, single point]
CCOCCCN1C(=O)CN(C2CCCCCC2)C(=O)C1c1ccc(OC)cc1 (configuration not stated) |  | inconclusive [inhibitor, partial curve]
CC(=O)NC(c1ccc(C)cc1)c1cc([N+](=O)[O-])c2cccnc2c1O (configuration not stated) |  | inconclusive [inhibitor, single point]
O=C(Cc1ccccc1)Nc1cc2c(cc1Cl)OCCCO2 | inactive: 66.6% | 
Cc1ccc(CSC2=NCCN2S(=O)(=O)c2ccccc2)cc1 |  | inconclusive [inhibitor, partial curve, poor fit]
CC1Oc2ccccc2OC1C(=O)Nc1ccccn1 (configuration not stated) |  | active: 5.86 µM
COC(=O)c1cc(NC(=O)COC(=O)CN2C(=O)C3CC=CCC3C2=O)cc(C(=O)OC)c1 (configuration not stated) | inactive: 13.9% | 
COC(=O)C1CCCN1C(=O)C12CC3CC(CC(C3)C1)C2 (configuration not stated) | inactive: -17.9% | 
Cc1cc(NC(=O)CCC(=O)N(Cc2cccnc2)C(C(=O)NC(C)(C)C)c2ccccc2Cl)no1 (configuration not stated) | inactive: -12.5% | 
Cc1ccc(-n2c(=O)[nH]c3c(C(N)=O)nc(-c4ccc(C)o4)nc32)cc1 | inactive: -16.4% | 
CCN(CC)CCN(C(=O)CCS(=O)(=O)c1ccccc1)c1nc2cc3c(cc2s1)OCO3 | inactive: -1.93% | 
COc1ccccc1CC(=O)N(CCC1=CCCCC1)c1c(N)n(Cc2ccccc2)c(=O)[nH]c1=O | inactive: -9.38% | 
C=CCOC(=O)C(C#N)c1nc2ccccc2nc1N1CCN(Cc2ccccc2)CC1 (configuration not stated) |  | inconclusive [inhibitor, single point]
CC(/C=N/NC(=O)Cn1nccc1C)=C\c1ccc(C(C)C)cc1 | inactive: 12.1% | 

Structure (SMILES) | activity change, negative = inhibition | Potency
CC(C)(C)C(=O)c1sc(Nc2ccccc2)nc1N |  | inconclusive [inhibitor, single point]
C#Cc1ccc([C@@H]2C=C(C(=O)N3CCOCC3)O[C@H](OCC)[C@H]2CCCO)cc1 |  | inconclusive [inhibitor, partial curve]
COc1ccc(CCNC(=O)COC(=O)c2ccccc2NCCO)cc1OC |  | inconclusive [inhibitor, single point]
COc1cccc(-c2ccc3nnc(SCC(=O)Nc4ccc(NC(C)=O)cc4)n3n2)c1 | inactive: 0.181% | 
CCCCC(C(=O)NC1CCCC1)N(Cc1ccccc1)C(=O)c1snc(C(N)=O)c1N (configuration not stated) |  | inconclusive [inhibitor, partial curve, poor fit]
COc1ccc(-c2cn(Cc3ccc(C(=O)NCc4ccc(C)cc4)cc3)c(C(C)N)n2)cc1 (configuration not stated) |  | active: 11.7 µM
Cc1ccccc1CNc1ncnc2c1ncn2C1OC(CO)C(O)C1O (configuration not stated) | inactive: -4.98% | 
COc1ccccc1CN(C)CC(=O)Nc1cccc2ccccc12 | inactive: -7.07% | 
CC(C)c1ccccc1NC(=O)c1ccc(CN(c2ccccc2)S(=O)(=O)c2ccccc2)cc1 |  | inconclusive [inhibitor, partial curve]
Cc1nc(Cc2nnc(SCC(=O)N3CCN(c4ccc(F)cc4)CC3)o2)cs1 |  | inconclusive [inhibitor, single point]
Cc1cc(NC(=O)CCN2C(=O)c3ccccc3C2=O)no1 |  | inconclusive [inhibitor, full curve]
Cc1[nH]n(-c2ccccc2)c(=O)c1N=Nc1cccc([N+](=O)[O-])c1 | inactive: 48.9% | 
CC(c1ccccc1)[n+]1ccccc1 (configuration not stated) |  | active: 9.28 µM
CC1CC(C)CN(S(=O)(=O)c2ccc3c(c2)oc(=O)n3CC(=O)NCCCOC(C)C)C1 (configuration not stated) |  | inconclusive [inhibitor, partial curve, poor fit]
O=C(N/N=C/c1ccc(-c2cccc([N+](=O)[O-])c2)o1)c1ccccc1O |  | inconclusive [inhibitor, partial curve, poor fit]
O=C(CNCc1ccc(Cl)cc1)Nc1ccc(C(=O)N2CCCCC2)cc1 |  | inconclusive [inhibitor, partial curve, poor fit]
Cc1ccc(C(=O)CC2(O)C(=O)N(C)c3ccc(Br)cc32)c(C)c1 (configuration not stated) |  | inconclusive [inhibitor, single point]
CCOC(=O)N1CCN(C(=O)c2cn(C)c(=O)c3c2c2ccccc2n3C)CC1 |  | inconclusive [inhibitor, single point]
Cc1ccc(C)c(CSCc2nc3ccccc3[nH]2)c1 |  | inconclusive [inhibitor, partial curve]
Cc1ccc2c(c1)nnn2C1CCN(CC(=O)c2ccc(Cl)cc2)CC1 |  | inconclusive [inhibitor, single point]
CC(C)CC1c2[nH]c3ccccc3c2CCN1C(=O)C1CCOCC1 (configuration not stated) |  | active: 4.65 µM
COc1ccc(Cc2nc3ccc(C(=O)NCCc4cccc(C)n4)cc3o2)cc1 |  | inconclusive [inhibitor, partial curve, poor fit]
CCO[C@H]1OC(C(=O)N2CCN(Cc3ccccc3)CC2)=C[C@@H](C2CCCCC2)[C@@H]1CCCO |  | inconclusive [inhibitor, full curve, poor fit]
COc1ccc(CN(C(=O)c2snc(C(N)=O)c2N)C(C(=O)NC(C)(C)C)c2ccco2)cc1 (configuration not stated) |  | inconclusive [inhibitor, single point]

Structure (SMILES) | activity change, negative = inhibition | Potency
C=CCn1c(=O)c(C(=O)NCCN(CC)CC)c(O)c2ccccc21 |  | inconclusive [inhibitor, partial curve, poor fit]
C=CCc1cc(Cl)ccc1OCCOCCN(C)C |  | inconclusive [inhibitor, single point]
O=c1c2[nH]c3cccc(Cl)c3c2ncn1CCN1CCCCC1 | inactive: 23.4% | 
O=C(/C=C/c1ccc(OC(F)F)cc1)OCC(=O)N1CCC(c2ccccc2)=N1 |  | inconclusive [inhibitor, single point]
Cc1n(C)c2cc(Cl)ccc2[n+]1Cc1ccccc1 |  | active: 2.94 µM
Cc1ccc(Cl)cc1NC(=O)COC(=O)CC1CCCCC1 |  | inconclusive [inhibitor, single point]
O=C1CC2(CCN(C(=O)c3cccc(Cl)c3)CC2)Oc2ccccc21 |  | inconclusive [inhibitor, full curve, poor fit]
COc1ccc(C)cc1NC(=O)NCc1ccco1 | inactive: -10.3% | 
COC(=O)C1(C)NC(c2ccc(O)cc2)C2C(=O)N(c3ccc4c(c3)OCCO4)C(=O)C21 (configuration not stated) |  | inconclusive [inhibitor, full curve, poor fit]
Cc1cc(OCCCCNC(C)C)cc(C(C)C)c1 |  | inconclusive [inhibitor, partial curve]
Cc1c(C(=O)Nc2ccc(F)cc2)c2ccccn2c1CCc1ccncc1 | inactive: 3.35% | 
COc1cc(/C=N/NC(=O)c2cc(C3CC3)[nH]n2)ccc1O | inactive: 2.18% | 
COCCN(C(=O)c1ccccc1OC1CCN(S(C)(=O)=O)CC1)C(C)C | inactive: -11.6% | 
COc1ccc(CCNC(=O)COC(=O)COc2ccc(C#N)cc2)cc1 | inactive: 1.35% | 
Cc1ccc(S(=O)(=O)N(CC(=O)N2CCCC2)C2CCCCC2)cc1 |  | inconclusive [inhibitor, single point]
CCNC(=O)NC(C(=O)OC)C12CC3CC(CC(C3)C1)C2 (configuration not stated) | inactive: 3.82% | 
O=C(Nc1ccccc1C(F)(F)F)c1cc2ccccc2o1 | inactive: 212% | 
CCN1CCCC1CNC(=O)C1c2ccccc2C(=O)N(CCOC)C1c1ccc(F)cc1 (configuration not stated) |  | inconclusive [inhibitor, single point]
O=C(c1ccccc1)N1CCN(c2ccc([N+](=O)[O-])c(NCC3CCCO3)c2)CC1 (configuration not stated) |  | inconclusive [inhibitor, single point]
Cc1ccc(CNC(=O)CS(=O)Cc2nc(-c3ccccc3Cl)oc2C)cc1 (configuration not stated) | inactive: 4.95% | 
CCNC(=S)N1CCNC(=O)C1CC(=O)OC (configuration not stated) | inactive: 36.6% | 
O=c1c(Cc2c(F)cccc2Cl)c(O)ccn1C1CCCCCC1 |  | inconclusive [inhibitor, single point]
COc1cc(CCC(=O)Nc2c(C(=O)N3CCN(c4ccccc4OC)CC3)oc3ccccc23)on1 |  | inconclusive [inhibitor, single point]
CC(C)C(NC(=O)OCc1ccccc1)C(=O)OCC(=O)NCc1ccco1 (configuration not stated) | inactive: -26.4% | 

— PubChem BioAssay AID504832 (National Center for Advancing Translational Sciences (NCATS), 2011)
